Data on 48 compounds can be found in PubChem BioAssay AID1645882 (National Center for Advancing Translational Sciences (NCATS), 2021).

The structures appear in SMILES notation. Screen size: about 16,000 compounds; about 120 (0.75%) were called active. Another 4% or so got no clear call; they are omitted. Calls come from the whole dose curve; as a rule, active = well fitted inhibition curve with a large enough effect; inconclusive = small, poorly fitted or top-dose-only effect; inactive = no such curve, though single readings can be large or run the other way. Some of the results follow.

The target in the test is Rap guanine nucleotide exchange factor 3 (Homo sapiens) (UniProt O95398). Description: Validation qHTS for antagonist of cAMP-regulated guanine nucleotide exchange factor 3 (EPAC1).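 Note: plate controls were DMSO for no effect and ATA control for full effect; nearly all actives have a fitted effect of over 75% in size.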 Conditions: EPAC1 Rap1B-BODIPY-GDP exchange, fluorescence; series mostly up to 150 µM; activity change, negative = inhibition: at the top concentration. An outline of the steps: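 Nucleotide exchange followed as fluorescence loss when BODIPY-GDP leaves Rap1B (480 nm excitation, 540 nm emission), read at 5 min intervals over 30 min. Reaction: 100 nM EPAC1, 250 nM RAP1B-BODIPY-GDP, 50 uM GDP; ATA and DMSO define normalization.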
UniProt O95398, sequence (O95398 whole entry, looked up): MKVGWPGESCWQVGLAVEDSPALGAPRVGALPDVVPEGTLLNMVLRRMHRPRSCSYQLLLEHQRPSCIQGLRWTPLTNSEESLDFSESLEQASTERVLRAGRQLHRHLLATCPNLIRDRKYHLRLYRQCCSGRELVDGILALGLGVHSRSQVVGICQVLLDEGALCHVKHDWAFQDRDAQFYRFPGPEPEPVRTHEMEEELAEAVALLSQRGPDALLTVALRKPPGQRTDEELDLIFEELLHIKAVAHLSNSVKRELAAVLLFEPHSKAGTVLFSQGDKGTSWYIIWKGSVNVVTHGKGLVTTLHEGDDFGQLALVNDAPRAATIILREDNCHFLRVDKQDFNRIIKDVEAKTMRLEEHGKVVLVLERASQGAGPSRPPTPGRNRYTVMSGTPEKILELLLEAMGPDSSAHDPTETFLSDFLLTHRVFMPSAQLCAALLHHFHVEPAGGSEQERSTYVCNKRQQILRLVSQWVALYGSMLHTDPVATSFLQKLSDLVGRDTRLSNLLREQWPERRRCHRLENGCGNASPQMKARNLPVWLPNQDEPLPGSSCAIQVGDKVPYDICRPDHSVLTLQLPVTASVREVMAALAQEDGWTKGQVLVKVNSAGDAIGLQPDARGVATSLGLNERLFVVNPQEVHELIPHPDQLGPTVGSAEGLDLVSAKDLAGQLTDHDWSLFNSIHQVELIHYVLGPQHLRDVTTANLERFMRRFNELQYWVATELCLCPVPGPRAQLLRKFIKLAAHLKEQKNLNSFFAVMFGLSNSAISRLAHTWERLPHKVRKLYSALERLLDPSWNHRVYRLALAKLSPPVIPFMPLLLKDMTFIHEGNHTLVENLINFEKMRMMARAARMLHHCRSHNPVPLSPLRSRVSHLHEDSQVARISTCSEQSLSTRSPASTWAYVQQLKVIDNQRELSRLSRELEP
For orientation: qHTS replaces the single test concentration by a dilution series.
On to `CC(C)C[C@H](NC(=O)N1CCCCCC1)C(=O)N[C@H](Cc1cn(C)c2ccccc12)C(=O)N[C@H](Cc1ccccn1)C(=O)O`, for which the “activity change, negative = inhibition” value was inactive: 8.7%.
Under `NC(=Nc1ccccc1)NC(=O)c1nc(Cl)c(N)nc1N` stands “inactive”; under `Clc1ccc(-n2cccc2CN2CCc3nnc(Cc4ccccc4)n3CC2)nc1`, inactive: 11.9%; under `C[C@]12CCC(=O)C=C1CC[C@@H]1[C@H]2[C@@H](O)C[C@@]2(C)[C@H]1CC[C@]2(O)C(=O)CO`, inactive: 18.8%.
The result for `CO[C@H]1[C@H](NC(=O)c2ccsc2)c2ccccc2C12CCN(Cc1ccc3c(c1)OCO3)CC2` reads inactive: 3.91%; that for `CN1CCN(CCC=C2c3ccccc3Sc3ccc(S(=O)(=O)N(C)C)cc32)CC1`, “inactive”.
Under `CC(=O)NCCNc1nc(-c2cccc(C#N)c2)nc2ccccc12` stands inactive: -0.185%; under `CC1=C(/C=C/C(C)=C/C=C/C(C)=C\CO)C(C)(C)CCC1`, inactive: 26.8%; under `CCOC(=O)C[C@H]1c2ccccc2S(=O)(=O)N1C1CC1`, inactive: 18.2%.
On to `Cc1cc[n+](CCC2CCCCC2)c2ccccc12`, for which the “activity change, negative = inhibition” value was inactive: 21.3%.
Under `Cc1ccc(-n2cc(CCCCCCCCC(=O)O)nn2)cc1` stands inactive: -6.33%; under `Nc1ccc(C(=O)O)cc1`, “inactive”; under `CCN1CCCC(OC(=O)C(c2ccccc2)c2ccccc2)C1` (stereo not drawn), “inactive”.
As to `CN1CCN(c2ncc3nc(-c4cc(F)cc(F)c4)c(=O)n(-c4ccccc4)c3n2)CC1`, the “activity change, negative = inhibition” value was inactive: -1.52%.
Under `[N-]=[N+]=NC[C@H](Cc1ccccc1)N1CC[C@@H](O)CCC1=O` stands inactive: 6.48%; under `COc1ccc(C(=O)N2CCC3(CC2)CN(C(=O)NC(C)C)C3)cc1`, inactive: 10.6%.
`COCCn1c(=O)c(C)nc2cnc(N3CCOCC3)nc21`: the “activity change, negative = inhibition” value was inactive: 2.6%.
Take `O=C(O)C[C@H]1c2cc(F)ccc2S(=O)(=O)N1C1CCCC1`: the “activity change, negative = inhibition” value is inactive: 11.6%.
With `CC(=C\c1ccccc1)/C=C1/SC(=S)N(CC(=O)O)C1=O`, the “activity change, negative = inhibition” value is inactive: 25.3%.
Under `COc1c(C)c2c(c(O)c1C/C=C(\C)CCC(=O)O)C(=O)OC2` stands “inactive”; under `Clc1ccccc1-c1nc(-c2ccncc2)no1`, inactive: 11.6%.
The result for `COc1ccc(Oc2ncc3nc(-c4ccc(OC)cc4)c(=O)n(C4CC4)c3n2)cc1` reads inactive: 5.81%; that for `COC(=O)[C@@H]1C[C@H](NC(=O)c2cc(C(F)(F)F)ccc2Cl)CN1Cc1cccc(O)c1`, inactive: 11.1%; that for `O=C(O)c1ccc(S(=O)(=O)N(Cl)Cl)cc1`, inactive: 5.86%.
Under `O=C(Oc1ccccc1C(=O)O)c1ccccc1O` stands inactive: 25.9%.
Turning to `O=C(c1ccco1)N1CCC[C@@]2(CCN(Cc3ccccc3)C2)C1`, the “activity change, negative = inhibition” value was inactive: 4.93%.
Under `COc1ccc(CN2CCc3nnc(CCc4ccccc4)n3CC2)c(OC)c1C` stands inactive: 2.12%; under `N[C@H](C(=O)O)C1C(C(=O)O)C1C(=O)O` (stereo partly drawn), inactive: 15.6%; under `O=C1CCC[C@@H]2CC(Nc3ccccc3)C[C@@H]3CCN1[C@H]23` (stereo partly drawn), inactive: 5.34%.
The result for `COC1=C(C(=O)O)N2C(=O)[C@@H](NC(=O)[C@H](N)C3=CCC=CC3)[C@H]2SC1` reads inactive: 30.7%; that for `O=[N+]([O-])c1cccc(CN2C[C@@]34C=C[C@@H](C[C@@H]3S2(=O)=O)O4)c1`, inactive: -10.6%.
Consider `COc1ccc(NC(=O)[C@@H]2CC=C[C@@H]3CCN(C4CCCCC4)C(=O)[C@@H]32)cc1`, for which the “activity change, negative = inhibition” value is inactive: 7.2%.
Under `O=C(O)CCc1cccnc1` stands inactive: 23.9%; under `NS(=O)(=O)c1cc(Cl)c(Cl)c(S(N)(=O)=O)c1`, inactive: 20.5% [at 75.8 µM]; under `CC(C)(C)c1ccc(C(=O)C[n+]2ccc(Cl)c3ccc(Cl)cc32)cc1`, inactive: 24.8%.
Consider `C[C@]12CC[C@@H](O)C[C@@H]1CC[C@@H]1[C@@H]2CC[C@]2(C)C=CC[C@@H]12`, for which the “activity change, negative = inhibition” value was inactive: 2.77%.
Under `O=C(c1cccc(F)c1)N1CCC[C@@]2(CCN(Cc3nccs3)C2)C1` stands inactive: 14.8%; under `C[C@H]1[C@H](C)CC[C@]2(C(=O)O)CC[C@]3(C)C(=CCC4[C@@]5(C)CC[C@H](O)C(C)(C)[C@@H]5CC[C@]43C)[C@H]12` (stereo partly drawn), inactive: -6.12%; under `O=C(c1csnn1)N1CCC[C@@]2(CCN(c3ccncc3)C2)C1`, inactive: 9.12%.
On to `Cc1c(C(=O)O)c(O)cc2c1C(=O)c1c(O)c([C@H]3O[C@H](CO)[C@@H](O)[C@H](O)[C@H]3O)c(O)c(O)c1C2=O`, for which the “activity change, negative = inhibition” value is inactive: -23%.
For the compound `Cc1csc(C(C)N(C)C(=O)c2cc(NC(=O)C3CCC3)c3c(c2)nc(-c2ccncc2)n3C)n1` (stereo not drawn), the “activity change, negative = inhibition” value is inactive: 14.7%.
For `COc1ccc(/C=C/C(=O)NCC2Cc3cccc(-c4nc(C)cnc4C)c3O2)cc1OC` (stereo not drawn), the “activity change, negative = inhibition” value was inactive: 5.92%.
Under `O=C(NCCN1CCOCC1)c1ccc(Cl)cc1` stands “inactive”.
On to `Fc1ccc(N2CCN(Cc3ccc4c(c3)CN(Cc3cccn3-c3ncccn3)CCO4)CC2)cc1`, for which the “activity change, negative = inhibition” value is inactive: -1.21%.
The result for `O=C(c1ccncc1)N1CCC2(CC1)CN(c1ccc(-c3ccccc3)cc1)C2` reads inactive: -0.329%; that for `N#Cc1ccc(CN2CC3(CCN(C(=O)c4cc(C(F)(F)F)cc(C(F)(F)F)c4)CC3)C2)cc1`, inactive: 7.37%; that for `COCCn1c(=O)c(-c2ccccc2)nc2cnc(N3CCOCC3)nc21`, inactive: 14.2%.
Under `Cc1ccc(/C(=C/CN2CCCC2)c2ccccn2)cc1` stands inactive: 1.58%.
